The results in this text go back to patent US20170204184A1 (CB THERAPEUTICS, published 2017).

In the experiment the target is T1, hPD-L1-mFc (human).
T1 construct: it may hold a signal peptide; also called human PD-L1-mFc; PD-L1-mFc (Crownbio)
Kind of experiment: ELISA, coated PD-L1-mFc.

B1: ch13C5-hIgG1 (antibody)
heavy: EVKLVESGGGLVKPGGSLKLSCAASGFIFRSYGMSWVRQTPEKRLEWVASISSGGSTYYPDSVKGRFTISRDNARNILYLQMSSLRSEDTAMYDCARGYDSGFAYWGQGTLVTVSS[human IgG1 constant region with D265A N297A (EU numbers) not spelt out]
light: DIVLTQSPASLAVSLGQRATISCRASQSVSTSSSSFMHWYQQKPGQPPKLLIKYASNLESGVPARFSGSGSGTDFTLNIHPVEEEDTATYYCQHSWEIPYTFGGGTKLEIKRTRTVAAPSVFIFPPSDEQLKSGTASVVCLLNNFYPREAKVQWKVDNALQSGNSQESVTEQDSKDSTYSLSSTLTLSKADYEKHKVYACEVTHQGLSSPVTKSFNRGEC
notes: Mouse-human chimeric IgG1 (D265A), human kappa; also called Chimeric 13C5-IgG1 (D265A)
B1 gave an EC50 of 0.0721 µg/mL.

B2: ch13C5-hIgG4 (antibody)
heavy: EVKLVESGGGLVKPGGSLKLSCAASGFIFRSYGMSWVRQTPEKRLEWVASISSGGSTYYPDSVKGRFTISRDNARNILYLQMSSLRSEDTAMYDCARGYDSGFAYWGQGTLVTVSSASTKGPSVFPLAPCSRSTSESTAALGCLVKDYFPEPVTVSWNSGALTSGVHTFPAVLQSSGLYSLSSVVTVPSSSLGTKTYTCNVDHKPSNTKVDKRV[human IgG4 Fc with S228P F234A L235A (EU numbers) not spelt out]
light: B1 light
notes: Mouse-human chimeric IgG4 (F234A/L235A), human kappa; also called Chimeric 13C5-IgG4 (F234A/L235A)
B2 returned an EC50 of 0.118 µg/mL.
